Results published in PubChem BioAssay AID588549 (Broad Institute, 2011).
“And” between values parts separate entries of the source, which are not always exact repeats. Equal entries are not always repeated. In all, about 360,000 compounds went through this assay and about 780 (0.22%) were called active. The shares of active, inactive and inconclusive entries below differ from those in the screen. No stated cut-off is given here; in the data, active means inhibition above about 8.5% (passing the limit was not always enough); inconclusive means no clear call, values can overlap the other calls.

System: Mycobacterium tuberculosis FadD28 fatty-acid-AMP ligase
Assay: inhibitors of FadD28 bisubstrate probe binding, primary screen, biochemical, fluorescence polarization, single point (AID 588549)
Conditions: at 12.5 µM, stronger effect = higher value

Row | SMILES | inhibition
1 | Oc1c(Cl)cc(Cl)cc1/C=N/NC(=S)NC1CC2C=CC1C2 (centres undefined) | inconclusive: 6.77%
2 | CC(C)(C)c1ccccc1NC(=O)Nc1nc(C(N)c2ccccc2)cs1 (centres undefined) | inactive: -0.297%
3 | COc1cc(-n2c(C)nc3cc(C(=O)O)ccc32)cc(OC)c1OC | inactive: -4.36%
4 | O=[N+]([O-])c1ccc(N2CCCCCC2)c2nonc12 | inconclusive: 6.59%
5 | Fc1ccc(-n2cc(-c3ccccc3)c3c(N4CCOCC4)ncnc32)cc1 | inconclusive: 11.6%
6 | CCn1c(SCC(=O)N2CCCc3ccccc32)nnc1-c1ccco1 | inactive: -2.42%
7 | COc1ccccc1C(=O)COC(=O)c1nc2nc(C)cc(C)n2n1 | inconclusive: 6.4%
8 | Cc1coc2c1c(C)cc1oc(=O)c(CC(=O)NCC(=O)O)c(C)c12 | inactive: -0.666%
9 | O=C(NNS(=O)(=O)c1ccc(F)cc1)c1cc(Cl)ccc1O | inconclusive: 5.74%
10 | O=C(CSc1nnc(Cc2ccccc2)n1-c1ccccc1)NNC(=O)Cc1ccccc1 | inconclusive: 7.62%
11 | COc1ccc(C2CC(c3ccccc3)=NN2c2ccccc2)c(C(=O)O)c1OC (centres undefined) | inactive: -1.15%
12 | O=C(O)c1ccc(N=c2oc3cc(O)ccc3cc2C(=O)NCc2ccccc2)cc1 | inconclusive: 6.42%
13 | COc1ccc(CC(=O)Nc2nnc(SCc3ccccc3)s2)cc1S(=O)(=O)N1CCOCC1 | active: 13.1%
14 | N=c1c(C(=O)NCc2ccco2)cc2c(=O)n3ccccc3nc2n1Cc1ccccc1 | inconclusive: 9.65%
15 | COC1(OC)N=C(N)C2(C#N)C(c3ccc(F)cc3)C12C#N (centres undefined) | inconclusive: 5.34%
16 | COc1cc(-c2nc(-c3ccccc3)c(-c3cccs3)[nH]2)cc(OC)c1O | inconclusive: 10.5%
17 | O=C1CS/C(=C\[N+](=O)[O-])N1c1ccc(OC(F)(F)F)cc1 | inactive: -3.07%
18 | O=C(O)Cc1ccc2c(c1)N(S(=O)(=O)c1cccs1)CC(C(=O)O)O2 (centres undefined) | inconclusive: 7.11%
19 | CC1(C)Oc2ccc3ccc(=O)oc3c2/C(=C/O)C1=O | inconclusive: 4.5%
20 | CN(C)[C@@H]1C(=O)C(C(N)=O)=C(O)[C@@]2(O)C(=O)C3=C(O)c4c(O)cccc4[C@@](C)(O)[C@H]3[C@H](O)[C@@H]12 | inconclusive: 7.75% and inconclusive: 7.82%
21 | Cc1c(OC(C)C(=O)NCCCN2CCOCC2)ccc2c3c(c(=O)oc12)CCC3 (centres undefined) | inactive: -2.15%

Row | SMILES | inhibition
22 | O=C(CCCCn1c(=O)c2ccccc2n(CC(=O)Nc2ccc(F)cc2)c1=O)NCc1ccco1 | inconclusive: 6.02%
23 | CCOC(=O)CN(C(=O)CSc1nnnn1C)c1ccccc1 | inactive: 1.19%
24 | CCCCc1c(O)nc(SCC(=O)N2CCOCC2)n(-c2ccc(OC)cc2)c1=O | inconclusive: 5.51%
25 | O=C(NN1C(=O)/C(=C/C=C/c2ccco2)SC1=S)c1ccncc1 | active: 30.4%
26 | O/N=C1\CC/C(=N\O)c2nn(-c3ccccc3Cl)nc21 | inconclusive: 19.3%
27 | O=C(O)c1cc(-c2ccc(/C=C3/SC(=S)N(Cc4ccccc4)C3=O)o2)ccc1Cl | active: 27.9%
28 | O=C(CC1C[C@H](C(=O)N2CCOCC2)[C@@]2(CCC3CCCC3)c3[nH]c4ccccc4c3CCN2C1=O)NCCCn1ccnc1 (some centres undefined) | inactive: -4.32%
29 | COc1ccc(/C=N/n2c(SC)nnc(C(C)(C)C)c2=O)cc1OC | inconclusive: 5.76%
30 | Cc1cc(NC(=O)CCCS(=O)(=O)c2nc(-c3cccs3)cc(C(F)(F)F)n2)no1 | inactive: -3.5%
31 | O=C(Cn1cc(S(=O)(=O)Cc2cccc([N+](=O)[O-])c2)c2ccccc21)N1CCOCC1 | inconclusive: 2.43%
32 | Cc1ccc(CSCCNC(=O)c2ccc(NS(C)(=O)=O)cc2)cc1 | active: 15.4%
33 | O=C(O)c1ccc2c(c1)C(=O)N(c1ccc(Nc3ccccc3)cc1)C2=O | inconclusive: 6.62%
34 | COc1ccc(C2C(C#N)=C(N)N(c3ccccc3)C3=C2C(=O)CCC3)cc1Cn1cc([N+](=O)[O-])cn1 (centres undefined) | inconclusive: 5.08%
35 | COc1ccc(C(=O)Nc2ccc(C)cn2)cc1S(=O)(=O)N1CCCc2ccccc21 | inconclusive: 7.92%
36 | Cc1cc(CNCCN(C)C)c(C)n1-c1cc(S(=O)(=O)N2CCOCC2)ccc1N1CCCC1 | inactive: -2.22%
37 | Nc1ccc(Oc2cccc(Oc3ccc(N)cc3)c2)cc1 | inactive: 0.158%
38 | COc1ccc(Cl)cc1NC(=S)N(Cc1ccc(C(=O)O)cc1)Cc1ccc(OC)c(OC)c1 | inconclusive: 8.08%
39 | CCC1(c2ccccc2)NC(=O)N(CC(=O)N(C)Cc2c(F)cccc2Cl)C1=O (centres undefined) | inactive: 1.19%
40 | O=C(O)c1ccc(-c2nc(-c3ccccc3)c(-c3ccccc3)[nH]2)cc1 | inconclusive: 7.14%
41 | Cc1cc(=O)oc2ccc(OC(C)C(=O)O)cc12 (centres undefined) | inactive: -1.54%
42 | CCCCCCCCCCCCCCCC[n+]1ccccc1 | active: 29% and active: 32.8% and active: 31.8%

Row | SMILES | inhibition
43 | Cc1[nH]c2ccccc2c1-c1csc(NC(=O)CSCC(=O)O)n1 | inconclusive: 7.88%
44 | Cc1nc(S/C(=C\c2ccc(-c3ccc(C(=O)O)c(Cl)c3)o2)C(=O)O)n[nH]1 | active: 19.9%
45 | COC(=O)CSc1nnc(CNC(=O)c2cc(OC)cc(OC)c2)n1-c1ccc(F)cc1 | inconclusive: 0.937%
46 | O=C(NCCSCc1ccccc1)c1ccc(Cl)c(S(=O)(=O)N2CCOCC2)c1 | inconclusive: 8.1%
47 | Nc1cc(N)cc(-c2nc3ccccc3[nH]2)c1 | inconclusive: 8.21%
48 | Cc1nnc(SCC(=O)Nc2ccc(F)cc2)n(N)c1=O | inconclusive: 3.05%
49 | CC(C)NC(=O)c1ccc(-c2cc(C(F)(F)F)ccc2Cl)o1 | inactive: -0.112%
50 | NC(Cc1ccc(C(F)(F)F)cc1)c1csc(Nc2nncc3ccccc23)n1 (centres undefined) | inconclusive: 11.3%
51 | Cn1c(=O)c2cc(NC(=S)NC3CCCCC3)ccc2n1C/C=C/c1ccccc1 | inconclusive: 6.29%
52 | CCOc1ccc(C=NNc2ccc(S(=O)(=O)Nc3ccccc3C(=O)O)cc2[N+](=O)[O-])cc1OC | inconclusive: 9.43%
53 | CCOC(=O)C1CCCN(C(=O)C2c3ccccc3Oc3ccccc32)C1 (centres undefined) | active: 10.1%
54 | Cc1nn(-c2ccccc2Cl)c(Cl)c1/C=N/Nc1cccc(C(=O)O)c1 | active: 15.9%
55 | CCN=c1scc(C)n1/N=C/c1cc(Br)c(O)c(Br)c1 | inconclusive: 7.69%
56 | O=C(N/N=C/c1c(O)n(-c2ccccc2Cl)c(=O)c2ccccc12)C1COc2ccccc2O1 (centres undefined) | inconclusive: 10.2%
57 | O=C(NCCCO)c1ccc2nc(-c3ccco3)c(-c3ccco3)nc2c1 | inconclusive: 8.12%
58 | Cc1ccc(NC(=O)CN2C(=O)N/C(=C/c3cccn3-c3ccc(C(=O)O)cc3)C2=O)cc1 | active: 17.8%
59 | O=c1[nH]nc(-c2ccccc2)cc1-c1ccccc1 | inconclusive: 5.59%
60 | O=C(NNC(=O)c1ccc(Cl)c([N+](=O)[O-])c1)c1ccncc1 | inconclusive: 4.08%
61 | Cn1c(=O)cc2c3c(c(N4CCCCC4)ccc31)C(=O)c1ccccc1-2 | active: 32.1%
62 | Nc1ccc(-c2nc3c(Cl)c(N)ccc3[nH]2)cc1 | active: 11.4%
63 | CCOc1ccc(-c2nnc(SCC(=O)N3CCCC3)o2)cc1 | inconclusive: 7.4%

Row | SMILES | inhibition
64 | O=C(O)c1ccc(N=C2SCC(=O)N2Cc2ccccc2)cc1 | inconclusive: 7.14%
65 | CC(=O)c1cccc(NC(=O)COC(=O)c2ccccc2C)c1 | inconclusive: 5.59%
66 | CCC1CCc2c(sc(NC(=O)CSc3nc(-c4ccco4)cc(C(F)(F)F)n3)c2C#N)C1 (centres undefined) | inconclusive: 5.22%
67 | CCOC(=O)C1CCCN(C(=O)c2cc(Nc3ccc(OC)c(OC)c3)nc3ccccc23)C1 (centres undefined) | inconclusive: 7.63%
68 | CN(C)c1ccc(NC2=C(Cl)C(=O)c3ccccc3C2=O)cc1 | inactive: -1.72%
69 | Cc1cn([C@H]2C[C@H](O)[C@@H](CCC(=O)NCc3ccc(N(C)C)cc3)O2)c(=O)[nH]c1=O | inactive: 0.0615%
70 | CCCCCCCCCCCCCCCC[N+](C)(C)CCl | active: 20.1%
71 | CCOc1cccc(C=NNc2ccc(S(=O)(=O)Nc3ccccc3C(=O)O)cc2[N+](=O)[O-])c1O | active: 17.3%
72 | O=C(OCC(=O)N1CCCCC1)c1ccccc1SCC(=O)N1CCCCC1 | inactive: -4.45%
73 | N#CCCN(CCC#N)C(=O)C1c2ccccc2Oc2ccccc21 | active: 11.1%
74 | CCC(C)c1ccccc1N1CC(C(=O)Nc2ccc(S(=O)(=O)N3CCOCC3)cc2)CC1=O (centres undefined) | inactive: -1.69%
75 | CCOc1ccccc1NC(=O)CN(C)S(=O)(=O)c1cnc[nH]1 | inconclusive: 8.44%
76 | Cn1c(=O)c2c(ncn2Cc2ccc(Cl)cc2)n(C)c1=O | active: 15.8%
77 | Cc1ccnc(NC(=O)CCC(=O)N(CC(=O)NCC2CCCO2)Cc2ccc(F)cc2)c1 (centres undefined) | inconclusive: 7.9%
78 | Cc1[nH]n(-c2ncc(-c3ccccc3)s2)c(=O)c1C(c1ccc(Br)cc1)C(C#N)C#N (centres undefined) | inconclusive: 5.03%
79 | CCOc1c(O)ccc(/C=C2\SC(=S)NC2=O)c1[N+](=O)[O-] | inconclusive: 8.02%
80 | COc1ccc(N2CC(C(=O)Nc3cccnc3)CC2=O)cc1 (centres undefined) | inconclusive: 6.67%
81 | C#CCOc1ccc2c3c(c(=O)oc2c1)CCCC3 | inactive: -2.27%
82 | Cc1ccc(SCCN2CCN(C)CC2)cc1 | inconclusive: 4.48%
83 | CN(Cc1ccc([N+](=O)[O-])cc1)c1ccccc1 | inconclusive: 8.42%
84 | Clc1cccc(/C=N/N2CCN(Cc3ccccc3)CC2)c1 | inconclusive: 4.58%
